Measured values published in the supplement of paper PMC10126150.
Values marked as one replicate rest on one cluster of the flow cell; about a third of the high ones do not repeat.

test system: ATP; experiment: switch fluorescence ratio, 500 uM ATP over buffer (Cy3 cluster intensity, sum of 5 cycles each) (fold (ratio)); higher = stronger signal-on switching upon ATP binding; sequences stand for … in TCGTCGGCAGCGTCAGATGTGTATAAGAGACAGTTTTTTTTTTTTTTTTTTTTTTTTT…TC; conditions: aptamer strand: ATP DNA aptamer (quencher-CACCTGGGGGAGTATTGCGGAGGAAGG + anchor), 100 nM annealed; ATP concentration: 500 uM; one replicate
In short: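 The fluorescence ratio divides summed target-cycle Cy3 intensity by summed buffer-cycle Cy3 intensity for each cluster and is averaged per switch-domain sequence. Cy3-labelled switching-strand clusters on a modified Illumina MiSeq flow-cell were annealed to 100 nM quencher-labelled ATP aptamer, then imaged in selection buffer and again after 15 min with 500 uM ATP at 22 °C. Five such cycles were run, with NaOH stripping and re-annealing between them, and clusters outside 100-1000 RFU were excluded.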
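Also: ATP exposure 15 min at 22 °C before imaging.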

Sequence	switch fluorescence ratio
GTGGGTCAGA	1.03
GTGGGTCTAG	0.963
GTGGGTTAC	0.999
GTGGTAAAGA	0.987
GTGGTAGCTC	1.02
GTGGTCGCGA	0.983
GTGGTCGGAG	0.946
GTGGTCTTCC	1.14
GTGGTGACTG	0.999
GTGGTGGGT	1.01
GTGGTTACGT	0.979
GTGGTTGC	1.09
GTGGTTGGAT	1
GTGTAAGGAA	0.973
GTGTACCAAG	1.01
GTGTAGAATG	0.988
GTGTATTCAC	1.03
GTGTCAGCTA	1.02
GTGTCCTAAA	0.995
GTGTCCTCCG	2.69
GTGTCGTAGC	1.02
GTGTCTCGTT	0.994
GTGTGACGA	0.98
GTGTGACGTG	1.01
GTGTGACTT	1
GTGTGGATAA	0.977

Sequence	switch fluorescence ratio
GTGTGGGCCT	1.04
GTGTGGTAGT	0.919
GTGTGTAGA	0.999
GTGTGTGAGA	1
GTGTGTGGAG	1.01
GTGTTAAAAG	1
GTGTTACACG	0.938
GTGTTACTGC	1.02
GTGTTCTGTG	0.953
GTGTTGAGAG	1
GTGTTGATTA	1.05
GTGTTTAAGG	1.01
GTGTTTAGG	0.972
GTGTTTCGGG	1.03
GTGTTTCTGG	0.99
GTGTTTTTAC	0.998
GTGTTTTTTA	0.972
GTTAAAACTA	1.03
GTTAACAGGT	1.02
GTTAACCGA	1.08
GTTAACCTCG	1.03
GTTAAGTAGA	1.03
GTTAAGTTCC	1.09
GTTAATATGG	1.02
GTTAATCGTG	0.949
GTTAATTCTA	0.982

Sequence	switch fluorescence ratio
GTTAATTTAT	0.981
GTTACACCGT	1.02
GTTACCCGAA	0.991
GTTACGAATG	0.99
GTTACGAGCG	1
GTTACGCCGC	1.11
GTTACGTGAA	1.32
GTTACGTGTG	0.99
GTTACTAAGC	1.01
GTTACTCTTT	1.03
GTTAGACGTT	1.03
GTTAGCATGC	0.989
GTTAGCGAGG	1.04
GTTAGGATGT	1
GTTAGGGAAT	1.04
GTTAGGGCCA	1.01
GTTAGTAAAT	0.997
GTTAGTACGT	1.01
GTTATAATTT	0.978
GTTATAGAAG	1
GTTATAGGCG	0.977
GTTATCCTAA	0.93
GTTATCGCCG	1.01
GTTATCGGAG	1.01
GTTATGATGG	1.01
GTTATGCGTC	0.923

Sequence	switch fluorescence ratio
GTTATTCTGC	1.02
GTTCAAAAGT	1.02
GTTCAAGTGT	0.998
GTTCAATTGC	0.971
GTTCACCCCG	1.31
GTTCAGAGG	0.994
GTTCATTCC	1.27
GTTCCAGCAG	1.08
GTTCCCGTGT	1.01
GTTCCGATCG	1.65
GTTCGAGCTT	1.02
GTTCGCCGTT	0.954
GTTCTACATT	0.99
GTTCTAGTCC	0.948
GTTCTCG	0.972
GTTCTGCATA	1.25
GTTCTTTTC	0.977
GTTGAAGGGT	0.988
GTTGAATGCC	0.992
GTTGACCACT	0.987
GTTGAGAAAT	0.916
GTTGATAAAT	0.981
GTTGATAGCA	1.01
